Positions count from the first letter of the chain named. This is one part of the list.
B1: chr21:30248746:30248747:-_ENSG00000156239_ENST00000303775|hu_hu|FALSE|FALSE (ssRNA)
RNA: GGGAGUUCUACAGUCCGACGAUCUCAAAAUAUGCUAAAUGCAUUCAGUUUCCAGUAGUUCUGGGCACACACUGUAUGCUAAGACUUGGUGAACUUGAGGACUGAAAGAGUUUCUUGGCCUGCUUGUCUGGAAAGUGCAGUGGUCAACAGAGGAUUGAGCAUCA
B2: chr5:138643614:138643615:+_ENSG00000015479_ENST00000510056|perfect_dup|motif|central (ssRNA)
RNA: GGGAGUUCUACAGUCCGACGAUCGUCAUAAUCAAGCACUGGGUUGAGACUAGGACCACGAUCAUCAAAACUAUCUCUUCGGAAGUGCCUUUUUUCUUCCCAAUCAUCCCUAGGUACUCUGUAUGGUGGCUCCCGUGUAGCAGACAACAGAGGAUUGAGCAUCA
B3: chr15:23003119:23003120:+_ENSG00000068793_ENST00000560848|hu_hu|motif|central (ssRNA)
RNA: GGGAGUUCUACAGUCCGACGAUCUUUUUAGAUCGAAAAGCACCCCCUUUAACAGGUACAGAGAUACUGAAAAAUAGUCCCGGAAAAUCUCACUAAAUAGUUUACGGAGAGAAAGGCAUGCCAUGUUGAGUUACGGAGUGCAGCCAACAGAGGAUUGAGCAUCA
B4: chr1:58468927:58468928:-_ENSMUSG00000026034_ENSMUST00000148330|mus_mus|mus_mus_mus_hu_False|88_98 (ssRNA)
RNA: GGGAGUUCUACAGUCCGACGAUCAAUUACUGAAAAAUGAAAGAUGUUAUUUGGUUUUGUACUUAAUGAACCAAAUUACCCAAACAAAAUAAACAUGGCAAUAUAAAAAUGUUAAGAAUUUACAAAGCUGUACAAAAUAACUUACAACAGAGGAUUGAGCAUCA
B5: chr1:95367794:95367795:-_ENSG00000117519_ENST00000538964|hu_hu|FALSE|FALSE (ssRNA)
RNA: GGGAGUUCUACAGUCCGACGAUCAUUUGCUUCGAAUAUGUCAUGUGGCUUCAUACCAUAAGCCUGAAUAGCUUUAAUAAAGUUGCCAAUAUUCUCCAACUGAGGCCAGUUCAGUGAGGACUCGUUGACCUUCUUCACUGAGCCCAACAGAGGAUUGAGCAUCA
B6: 31020732_31021150_1074_CDS_ENSG00000171456_ENST00000306058|human|control|control (ssRNA)
RNA: GGGAGUUCUACAGUCCGACGAUCUUUGAUUUCAGCCUCCUCCUGGCCCACGUUCUGCUGCAAUGACUCUUCUUUGGUCAAACCCAGCUUCUGUCCAUAGUAGUCUUCAAAGAACUUUUCUUUCCAUUGUUCCACCUUCUUUUCCAACAGAGGAUUGAGCAUCA
B7: chr10:73857132:73857133:-_ENSG00000138303_ENST00000317168|hu_hu|FALSE|FALSE (ssRNA)
RNA: GGGAGUUCUACAGUCCGACGAUCUUUCCAAGAUCCACCUCAGGAGAAGUCAAUUUGUCCACAGGAAGCGUAGUUUCCAAAGCUGUCUACGGUGAACCUCUGAGAGAUGUGAAUUGAAUUCAGCUUUAGGGAGCCAAAGUAGAACAACAGAGGAUUGAGCAUCA
B8: 10426189_10434434_903_3pUTR_ENSMUSG00000027534_ENSMUST00000029047|mouse|control|control (ssRNA)
RNA: GGGAGUUCUACAGUCCGACGAUCACCUGGUGGAUCAUCCAGACAAAGAAAUUCUCUCACUGCAAGGCAGUUAGCAAUGUCCUUGUGAGCUACUAGGUUCUGAAGAAAUGCUUGUAGUCCUAAUUGUCUAUCUUCUAGAAAUUCCAACAGAGGAUUGAGCAUCA
B9: chr7:91631701:91631702:+_ENSG00000127914_ENST00000356239|hu_mus|motif|central (ssRNA)
RNA: GGGAGUUCUACAGUCCGACGAUCUUCAUUUAGAUAAAGGCAUUGUUGUUGAAGGUCCUCGGUCUCCUUCCUCAGCAUCGCGGCUUCUUUUUGCCACCUCGAGUCUGCCGACUUGCUUGUGCUGGGAUCUACGGCAAUGGAUCUCAACAGAGGAUUGAGCAUCA
B10: 40523664_40526014_3401_CDS_ENSG00000180182_ENST00000324817|human|control|control (ssRNA)
RNA: GGGAGUUCUACAGUCCGACGAUCUUGAGGAGAUCCUGGCCAGUUCCCUGCUCGUCCACUUGGUGACACCAUAGUGUAUGGGGAACUAGGGUCAAGAGUUCCAUGUGGACUAGCAAAACUGGCCCCUGGUCCUAUUGAGAUUCCCAACAGAGGAUUGAGCAUCA
B11: chr10:33214929:33214930:-_ENSG00000150093_ENST00000302278|hu_hu|hu_hu_hu_mus_True|18_38 (ssRNA)
RNA: GGGAGUUCUACAGUCCGACGAUCAACAAGUUCAUUGAAAAACUCUCCUCUGUCAGUAAGACUAAGCACAUUUUUGUAGCUAAAUGGGCUGGUGCAGUUCUGUUCACUUGUACAAGGGUUCCUGAGCUUUGCUGGGGUUGUGCUCAACAGAGGAUUGAGCAUCA
B12: chrX:98862621:98862622:+_ENSMUSG00000034160_ENSMUST00000044475|mus_hu|mus_mus_mus_hu_False|8_18 (ssRNA)
RNA: GGGAGUUCUACAGUCCGACGAUCCUGCAUCUCCUUUAGAGUGUUUCCCAUAUUAGAGUAGGCAUCAGCAAAGGUAGGACUGAUUCGAAUAGCCUCCUUAUAAUGCAUCAGAGCUUCCUGCAGCUUGCCCUGCUGUUGCAGUACCAACAGAGGAUUGAGCAUCA
B13: chrX:98862621:98862622:+_ENSMUSG00000034160_ENSMUST00000044475|mus_hu|mus_mus_mus_hu_False|18_18 (ssRNA)
RNA: B12 RNA with U135C
B14: chr17:62500844:62500845:-_ENSG00000108654_ENST00000583239|hu_hu|motif|central (ssRNA)
RNA: GGGAGUUCUACAGUCCGACGAUCCUUGAUAAAAAUUCUUCUCAAAUUUAGGCAGCUCAUCAAGAUUCCACUUCUUUUUAACGGAUUUCUCCCCAGGGUUUCCAAACUUCUUUCCAGAUAAGGGCCCUGCCCUACUUCCUCCAACAACAGAGGAUUGAGCAUCA
B15: chr3:100058692:100058693:+_ENSG00000114021_ENST00000480073|hu_hu|motif|central (ssRNA)
RNA: GGGAGUUCUACAGUCCGACGAUCAUAUUCAGGAAAAUAUUUCGCUCCAUAUGGAGAAUUAAAGCAUUCCGGCAAAGAAACGGUUUUGGCUCCUUGCGUUGCUGCCUCCCGGAUGAAGCUACAAGCGCGAGUGACGUUAUCUGACAACAGAGGAUUGAGCAUCA
B16: chr7:36427155:36427156:-_ENSMUSG00000030417_ENSMUST00000118501|mus_hu|FALSE|FALSE (ssRNA)
RNA: GGGAGUUCUACAGUCCGACGAUCACAAAGUAAAUAAUCAGAUCUUAACUUCUGUCCUAGACUUGUUCCGUUAAGUUCUAGUCUGUGAGCACUUGUAGUUCAAUAAUCGUCAUCUUCAUCAGAGUCCAUUACUUUUCUUCUGUUCAACAGAGGAUUGAGCAUCA
B17: chr4:103533647:103533648:+_ENSG00000109320_ENST00000505458|hu_mus|FALSE|FALSE (ssRNA)
RNA: GGGAGUUCUACAGUCCGACGAUCCCCAGACCCAACUUCUGUGCCAGAGUGGCCCAGUUUUUGUCUGGAUCAGGAAUUUCCAGCAGUUUGCAGAGUUGUAGCCUCGUGUCUUCUGUCAGCUGCUUCAUGUCCCCUUGUGGUAGUCAACAGAGGAUUGAGCAUCA
B18: chr1:163112212:163112213:-_ENSG00000143248_ENST00000313961|hu_hu|hu_hu_hu_mus_False|28_38 (ssRNA)
RNA: GGGAGUUCUACAGUCCGACGAUCUUUUAUUAUCAGUAAGAGUGAGUUACAUACUAGGCAAAGUAUUGGAUACAAUAAUCAGGAAACAAACACUAUUUUUCUUGAAUUUAAAAUAUAAUGAGCGAAGUGCUGGCACAGGACUUACAACAGAGGAUUGAGCAUCA
B19: chr3:176767854:176767855:-_ENSG00000177565_ENST00000430069|hu_hu|hu_hu_hu_mus_False|18_108 (ssRNA)
RNA: GGGAGUUCUACAGUCCGACGAUCGACAUCCUUGUUGCUGGGCACGUCCUGCCCUCCUUCCCGUAUGCAGUGUCUAAGCACGAGCUGCGUAGGGCCACUCGUGCUGUUCUCACUGAGAUUCCAUAUUCUUGCCGUGGAGUCUCCCAACAGAGGAUUGAGCAUCA
B20: chr1:145598734:145598735:-_ENSMUSG00000018199_ENSMUST00000159879|mus_mus|motif|central (ssRNA)
RNA: GGGAGUUCUACAGUCCGACGAUCUGGUCUGAUAUUUUUAUUGCAAGAGUCUCAAGGUUUUAAUACUAUCUUCAAUUCUCGGAAUGACUUUGCUCAUAGGUUUGAACCAAAACAUUUGCCUUUUGCCUCAAAAAUUUCCCUUAACAACAGAGGAUUGAGCAUCA
B21: 104393069_104396071_385_CDS_ENSMUSG00000020687_ENSMUST00000093923|mouse|control|control (ssRNA)
RNA: GGGAGUUCUACAGUCCGACGAUCAGUGAAGCAAGCUGAAUCUCCAAACUCAGUGACAAGGUCGUCAUGGCUUUUCUGCUUAUUAAACACUCCACCAGAUAAGAUCUGUUCCCCUUCUGCAAGCUUGCUGAGGUCAACACAACACAACAGAGGAUUGAGCAUCA
B22: 34915464_34918627_154_CDS_ENSG00000159140_ENST00000381679|human|control|control (ssRNA)
RNA: GGGAGUUCUACAGUCCGACGAUCCACUAUUUCUUCAUUUGGUAGACUCCUGGCAGAGGCAGCUGCAUCACCCGCCUGGUUUCCUUCAAUGGGUGUAUUUGUUUCACCAUUCAGCUGGCCUUCAUUCCUUCCACUGGAAAGCUCCAACAGAGGAUUGAGCAUCA

Molecular target: T1, UNK ZnF1-3 (human, UniProt Q9C0B0 31-174)
T1 sequence: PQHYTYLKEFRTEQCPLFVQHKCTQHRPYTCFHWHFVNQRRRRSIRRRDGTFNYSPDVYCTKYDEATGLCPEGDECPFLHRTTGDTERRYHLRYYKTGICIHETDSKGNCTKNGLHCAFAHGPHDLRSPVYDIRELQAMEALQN
Assay: nsRBNS (natural sequence RNA bind-n-seq); RBNS binding buffer (assumed for nsRBNS): 25 mM Tris pH 7.5, 150 mM KCl, 3 mM MgCl2, 0.01% Triton X-100, 500 ug/ml BSA, 20 U/ml SUPERase-In, 4 C; UNK is unkempt and MSI1 is Musashi-1; names of the RNAs are library labels; protein concentration not given here; high values mean tight binding

| Binder | binding signal [enrichment R] |
| --- | --- |
| B1 | 1.11 |
| B2 | 1.4 |
| B3 | 1.71 |
| B4 | 1.39 |
| B5 | 0.282 |
| B6 | 0.426 |
| B7 | 1.17 |
| B8 | 0.402 |
| B9 | 0.487 |
| B10 | 0.346 |
| B11 | 0.962 |
| B12 | 1.3 |
| B13 | 0.989 |
| B14 | 1.18 |
| B15 | 0.534 |
| B16 | 0.744 |
| B17 | 0.622 |
| B18 | 2.03 |
| B19 | 0.41 |
| B20 | 0.665 |
| B21 | 0.958 |
| B22 | 0.636 |

— article PMC12136788
